Out of some 45,000 compounds screened, about 65 (0.1%) were called active. Calls follow the shape of the dose curve; as a rule, active = well fitted activation curve with a large enough effect; inconclusive = small, poorly fitted or top-dose-only effect; inactive = no such curve, though single readings can be large or run the other way. Some of the results follow.
Each molecule was assayed against Galactocerebrosidase (Homo sapiens) (UniProt P54803) (assay: A Novel Cell-Based Assay to Identify Small Molecules for B -Galactocerebrosidase). Details: 145M-Twi-hGALC-G270D cells (Twitcher mouse brain line with human GALC G270D), HMU-beta-Gal fluorescence, 48 h; series mostly up to 57.5 µM; activation: at the top concentration.
Sequence of UniProt P54803 (P54803 whole entry, looked up): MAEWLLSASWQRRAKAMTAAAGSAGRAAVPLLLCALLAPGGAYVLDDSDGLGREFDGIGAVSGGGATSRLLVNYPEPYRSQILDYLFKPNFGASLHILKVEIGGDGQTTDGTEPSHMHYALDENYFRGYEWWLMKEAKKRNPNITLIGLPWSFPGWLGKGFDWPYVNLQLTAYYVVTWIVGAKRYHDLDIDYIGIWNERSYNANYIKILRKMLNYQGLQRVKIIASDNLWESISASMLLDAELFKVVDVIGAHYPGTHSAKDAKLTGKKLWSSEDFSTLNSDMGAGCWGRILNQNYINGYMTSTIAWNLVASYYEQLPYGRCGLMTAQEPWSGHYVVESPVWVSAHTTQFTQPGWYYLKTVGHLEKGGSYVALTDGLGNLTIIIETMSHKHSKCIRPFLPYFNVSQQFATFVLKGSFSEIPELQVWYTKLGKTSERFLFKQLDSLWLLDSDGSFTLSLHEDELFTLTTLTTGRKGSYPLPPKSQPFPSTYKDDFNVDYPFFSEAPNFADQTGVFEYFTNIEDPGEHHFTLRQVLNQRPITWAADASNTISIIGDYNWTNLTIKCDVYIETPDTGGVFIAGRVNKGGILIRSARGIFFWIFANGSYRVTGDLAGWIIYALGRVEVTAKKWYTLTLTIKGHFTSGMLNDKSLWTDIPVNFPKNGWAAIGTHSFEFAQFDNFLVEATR
In short: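 Live 145M-Twi cells (Twitcher mouse brain-derived, GALC-null) stably expressing human GALC-G270D, with a wild-type GALC line, were compound-treated. Residual GALC activity was then read as fluorescence from 0.1 mM final HMU-β-gal at pH 5.2; higher signal means activation.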
Also: 0% is about no effect; nearly all actives have a fitted effect of over 65% in size.

activation, inactive:
CCOC(=O)c1c(S(=O)(=O)N2CCCC(C(=O)N3CCN(c4cccc(C)c4C)CC3)C2)c(C)n(C)c1C (stereo not given) -17.1%
O=C(CN1C(=O)COc2ccc(S(=O)(=O)N3CCOCC3)cc21)NCc1ccc(F)cc1 -19.2%
CCOc1cc(S(=O)(=O)n2ccnc2C(C)C)ccc1Cl -14.8%
Cc1ccc(Nc2c3c(nc4nncn24)CCC3)cc1C 0.465%
CC(C)CN1CCc2nc(N3CCN(C)CC3)ncc2C1 -7.47%
Cn1c(=O)cc(SCC(=O)N2CCN(c3ccc(F)cc3)CC2)c2ccc(Cl)cc21 -21.1%
CC(=O)N1CCc2cc(Br)cc(S(=O)(=O)N3CCC(C(=O)N(C)c4cc(C)ccc4C)CC3)c21 -7.54%
COc1ccc(-c2cc3ccc(O)c(CN4CCOCC4)c3oc2=O)cc1 -23.5%
Cc1cccc(NC(=O)CSc2nc(-c3ccco3)nc3cc(=O)[nH]n23)c1 -9.42%
COc1cc(NC(=O)c2ccccc2)ccc1NC(=O)c1cc2ccccc2o1 -18%
Cc1cccc(NC(=O)c2nc(S(C)(=O)=O)ncc2Cl)c1 -31.3%
CCn1cc(C(=O)N2CCN(c3ccccc3F)CC2)c(=O)c2cc(S(=O)(=O)N(C)C3CCCCC3)ccc21 0.824%
CCOC(=O)c1c(C)oc2nc(C)nc(NCc3ccc(Cl)cc3)c12 -16.1%
CCc1ccc(NC(=O)C2CCN(S(=O)(=O)c3ccc4[nH]c5c(c4c3)CCCCC5)CC2)cc1 -1.72%
O=C(CCn1c(=O)c2ccccc2n(Cc2ccc(F)cc2Cl)c1=O)NCc1ccc2c(c1)OCO2 -6.31%
COC(=O)c1c(SC)nc2ccccc2c1OCc1ccccc1C -12.4%
COc1ccc(-c2ccc3c(N)c(C(=O)NCc4ccc(Cl)cc4)sc3n2)cc1 -21%
Cc1ccc(CNC(=O)C2CCN(c3nc4ccccc4n(C)c3=O)CC2)cc1 -4.2%
CCOC(=O)CSc1nc2c(sc3ccccc32)c(=O)n1CCc1ccccc1 -14.7%
O=[N+]([O-])c1cc(-c2nc(-c3ccccc3)no2)ccc1N1CCN(c2ccccc2)CC1 -7.83%
Cn1cc(S(=O)(=O)N2CCCCCC2)cc1C(=O)N1CCN(c2cccc(Cl)c2)CC1 -42.4%
CCOC(=O)c1noc2ncnc(Nc3ccc(F)cc3F)c12 -5.57%
Cc1cccc(C)c1NC(=O)Cn1c(=O)n(CC2CCC(C(=O)NCCc3ccccc3)CC2)c(=O)c2ccccc21 (stereo not given) 4.22%
CCOC(=O)C1CCN(C(=O)C2CCN(C3=NS(=O)(=O)C(c4ccc(C)cc4)=C3CC)CC2)CC1 -14.9%
Cc1ccc(NC(=O)Cn2nnc(-c3nc(-c4ccncc4)no3)c2N)cc1 -8.84%
Cc1ccc(C(=O)O)cc1Nc1nc2ccccc2n2nnnc12 1.11%
Cc1ccc(Cl)cc1N1CCN(C(=O)CCC(=O)Nc2ccc3nc(N4CCC(C)CC4)cc(C)c3c2)CC1 -2.86%
CCOc1ccc2nc(C)cc(Nc3ccccc3OCC)c2c1 -18.2%
CCCOc1ccc(CNC(=O)C(CC)n2nc(C)c3sc4ccccc4c3c2=O)cc1 (stereo not given) -1.31%
COc1ccc(CCNC(=O)C2(c3cccs3)CCOCC2)cc1OC -8.69%
COc1ccc2[nH]c(C)c(CCNS(=O)(=O)c3cc(F)ccc3OC)c2c1 -7.47%
COc1cc(OC)cc(C(=O)Nc2ccccc2-c2nc3ccccc3s2)c1 -12.6%
CN(C)c1ccc(C(CNC(=O)c2ccc(C(C)(C)C)cc2)N2CCOCC2)cc1 (stereo not given) -14.4%
CCCOc1cccc(C(=O)Nc2cccc(NC(=O)c3ccc(C(C)(C)C)cc3)c2)c1 -18.6%
COc1ccc(-c2cc(C(F)(F)F)n3nc(C(=O)Nc4cc(Cl)cc(Cl)c4)cc3n2)cc1 -17.3%
COc1cc(-c2ccno2)ccc1S(=O)(=O)N1CCN(c2ccc(C(C)=O)cc2)CC1 -8.82%
CCCCC(=O)Nc1ccccc1C(=O)OCc1cc(=O)n2nc(C3CCCCC3)sc2n1 -4.34%
CCOc1ccc(OC(=O)c2cn(-c3ccc(C)cc3)c(=O)c3ccccc23)cc1 -10.7%
COc1ccc(-c2nc3c4ccccc4n(CC(=O)Nc4cc(F)ccc4F)c(=O)n3n2)cc1 -13.5%
CCn1cc(S(=O)(=O)c2cc(C)cc(C)c2)c(=O)c2cc(F)c(N3CCCC3)cc21 -7.9%
COc1ccc(N2CCN(S(=O)(=O)CCNC(=O)Cc3ccc(Cl)cc3)CC2)cc1 -10.9%
CCOc1ccc(CCNC(=O)c2nnc(Cc3cc(OC)c(OC)c(OC)c3)o2)cc1OCC -7.38%
CCOC(=O)c1c(NC(=O)c2nc(SC(C)C)ncc2Cl)sc2c1CCCC2 -8.67%
O=c1cc(N2CCN(c3ccc(F)cc3)CC2)[nH]c(=O)n1-c1ccc(Br)cc1 -17.5%
Cn1c(SCc2ccc(C(F)(F)F)cc2)nc2c([nH]c3ccccc32)c1=O -12.8%
Cc1ccccc1Cn1c(=O)n(Cc2ccc(Cl)cc2)c(=O)c2cccnc21 13.2%
COc1cc(Cl)c(C)cc1NC(=O)c1sc2nc3n(c(=O)c2c1C)CCCCC3 -6.75%
COc1ccc(OC)c(NC(=O)CSC2=Nc3ccccc3C3=NC(CC(=O)NCc4ccc5c(c4)OCO5)C(=O)N23)c1 (stereo not given) -2.83%
CC(=O)c1c(C)oc2c(Cl)cc(NS(=O)(=O)c3ccc(Cl)cc3)cc12 -21.8%
CN(C)c1ccc(C(CNS(=O)(=O)c2ccccc2)N2CCc3ccccc32)cc1 (stereo not given) -16%
COc1cc(C(=O)NCC(c2cccnc2)N2CCc3ccccc32)cc(OC)c1OC (stereo not given) -8.06%
COc1cc(NC(=O)N2CCC(CN3CCCC3)CC2)cc(OC)c1OC -11.8%
O=C(CSc1nccn1-c1ccc(F)cc1)Nc1ccc(OC(F)(F)F)cc1 -5.84%
CCOC(=O)c1c(-c2ccc(Br)cc2)csc1NC(=O)c1ccccc1F 7.35%
CCN(CC)C(=O)Cn1c(=O)n(Cc2ccc(C(=O)NCc3ccccc3Cl)cc2)c(=O)c2ccccc21 13.2%
Cc1ccc2c(C)c(C(=O)N(Cc3ccc(Cl)cc3)C3CCS(=O)(=O)C3)oc2c1 (stereo not given) -10.1%
CCCNc1c(NC(=O)c2ccc(OCCC)cc2)c(=O)oc2ccccc12 -24.8%
O=C1[C@@H]2CSC(c3ccc(C(F)(F)F)cc3)N2C(=O)N1c1ccccc1 (stereo not given in full) -10.8%
O=C1CN(C(=O)c2ccccc2C(F)(F)F)C(c2ccccc2)c2cc(F)ccc2N1 (stereo not given) -7.13%
COc1cc2c(cc1OC)C(COc1ccc3c(C)cc(=O)oc3c1)N(C(=O)c1ccc(Cl)cc1)CC2 (stereo not given) -14.6%
COc1ccc(-c2nc3ccccc3s2)cc1NC(=O)COc1ccc(C)cc1 -4.1%
CCOc1ccc(NC(=O)CSc2nccn2Cc2ccco2)cc1 -28.4%
CCc1ccccc1NC(=O)c1ccc2c(O)c(S(=O)(=O)c3ccccc3)c(=O)[nH]c2c1 -10.1%
COc1ccc(NC(=O)c2cc3nc(-c4ccc(C)c(C)c4)cc(C(F)(F)F)n3n2)cc1 8.48%
COc1ccccc1CNC(=O)c1oc2ccc(S(=O)(=O)N3CCCCC3)cc2c1C -19.8%
CCC1CCCCN1S(=O)(=O)c1ccc(C(=O)Nc2sc3c(c2C(=O)NC)CCC3)cc1 (stereo not given) -15.8%
COc1ccc(OCC(=O)OCc2cc(=O)n3cc(C)sc3n2)cc1 4.01%
Cc1ccc(N(CC(=O)NCc2ccc(Cl)cc2)S(=O)(=O)N(C)C)cc1 -10.6%
COc1ccc(NC(=O)CSc2nc(-c3ccc(OC)cc3)[nH]c2-c2ccc(OC)cc2)cc1 -10%
CC(C)(C)NCC(O)COc1cccc2c1CCC(=O)N2 (stereo not given) -14.7%
Cc1ccc(CSc2ncc(Cl)c(C(=O)NCCc3ccc(S(N)(=O)=O)cc3)n2)cc1 -4.87%
CCOC(=O)C1CCN(C(=O)CCS(=O)(=O)c2cc3c(cc2Cl)NC(=O)CO3)CC1 6.26%
Cc1ccc(C(=O)Nc2cccc(-c3nc4cccnc4s3)c2C)cc1 -14.4%
Cc1cccc(CN2C(=O)c3ccccc3S(=O)(=O)c3ccc(C(=O)NCCC4=CCCCC4)cc32)c1 0.308%
COC(=O)c1ccc(Nc2nnc(-c3ccc(C)c(S(=O)(=O)N4CCN(C)CC4)c3)c3ccccc23)cc1 -19.4%
COc1ccc(-c2cc(OC(=O)c3ccc(Cl)cc3)c3c(C)oc(C)c3c(=O)c2)cc1 -14.3%
CCCN1CCN(CCNC(=O)Nc2ccc(OC)cc2OC)CC1 -7.49%
O=C(CC1C(=O)N(c2ccccc2)C(=O)N1CCC1=CCCCC1)Nc1ccc(F)cc1 (stereo not given) -19%
CC(=O)N1CCN(c2csc3ccc(F)cc3c2=O)CC1 -11.4%
CCc1ccc(C(=O)c2cn(CC(=O)Nc3ccc(F)cc3)c3ccc(OC)cc3c2=O)cc1 -16.3%
COc1ccc(NC(=O)Cn2c(=O)n(C(C)C)c(=O)c3oc4ccccc4c32)cc1Cl -4.21%
O=C1CN(C(=O)Cc2ccc(F)cc2)C(c2ccccc2)c2cc(Cl)ccc2N1 (stereo not given) -10.1%
Cc1ccccc1NC(=O)CSc1nc(-c2ccccc2C)nc2cc(=O)[nH]n12 -15.8%
CCOc1ccc(NC(=O)N2CCN(S(=O)(=O)c3ccc4c(ccn4C)c3)CC2)cc1 -8.61%
COCCNC(=O)Cn1nc(N2CCN(c3ccccc3OC)CC2)ccc1=O -11%
COc1ccccc1N(CC(=O)NCCSCc1ccccc1)S(=O)(=O)c1ccc(C)cc1 -8.76%
Cc1cc(C)c(NC(=O)C(C)n2nc(-c3ccc(C)c(C)c3)ccc2=O)c(C)c1 (stereo not given) -18.1%
Cc1ccc(NC(=O)Cc2ccc(-n3c(C)nc4cccnc43)cc2)cc1C 19.2%
Cc1cc(C)cc(OCC(=O)NCCc2nc3ccccc3[nH]2)c1 -10.7%
Brc1cccc(CNCCSc2nnnn2-c2ccccc2)c1 -13.6%
CCc1ccccc1N(C)C(=O)Cc1c(C(=O)O)c(C)cn1C -4.36%
Cc1nn(-c2ccccc2)c(OC(=O)C(C)C)c1Sc1ccccc1 -27.6%
COc1ccc(-c2cc(C(C)=O)c(C)n2CCC(=O)NCc2ccccc2OC)cc1 0.359%
CCOC(=O)c1c(C)oc2ncnc(N3CCN(c4ccccc4OC)CC3)c12 -13.7%
COc1ccc(Cn2c(SCc3ccc(C(=O)NC4CCCC4)cc3)nc3ccncc32)cc1 -3.41%

Reference: PubChem BioAssay AID1159614 (National Center for Advancing Translational Sciences (NCATS), 2016)
